Assay results published in the supplement of paper PMC8728848.
The list shows a part of the results.

Assays:
Experiment in all cases: glycan array binding signal (z-score within array); higher = stronger binding
Conditions in all cases: glycan notation: IUPAC condensed, linker removed
[1] = target: GlcNAc(b1-4)GlcNAc(b1-4)GlcNAc(b1-4)GlcNAc(b1-4)GlcNAc(b1-4)GlcNAc
Procedure, shortened: (§1)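 Glycan array data came from 3228 arrays in the Consortium for Functional Glycomics database, and only arrays with an available protein sequence were kept. Glycan names were put into IUPAC-condensed notation, and columns mapping to the same glycan were averaged. The binding signal is a within-array Z-score, averaged across arrays of one protein sequence run at different concentrations or buffers and across linkers. A negative Z-score can be read as non-binding.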

[2] = target: GlcNAc(b1-4)[GlcNAc(b1-6)]GalNAc
Procedure, shortened: as §1

[3] = target: GlcNAc(b1-6)Gal(b1-4)GlcNAc
Procedure, shortened: as §1

GlcNAc(b1-6)GalNAc = target: GlcNAc(b1-6)GalNAc
Procedure, shortened: as §1

[4] = target: GlcNAc6S(b1-3)Gal(b1-4)GlcNAc
Procedure, shortened: as §1

Kdn(a2-3)Gal(b1-3)GalNAc = target: Kdn(a2-3)Gal(b1-3)GalNAc
Procedure, shortened: as §1

Kdn(a2-3)Gal(b1-3)GlcNAc = target: Kdn(a2-3)Gal(b1-3)GlcNAc
Procedure, shortened: as §1

Kdn(a2-3)Gal(b1-4)Glc = target: Kdn(a2-3)Gal(b1-4)Glc
Procedure, shortened: as §1

Kdn(a2-3)Gal(b1-4)GlcNAc = target: Kdn(a2-3)Gal(b1-4)GlcNAc
Procedure, shortened: as §1

[5] = target: Kdn(a2-3)Gal(b1-4)[Fuc(a1-3)]GlcNAc
Procedure, shortened: as §1

Kdn(a2-6)Gal(b1-4)GlcNAc = target: Kdn(a2-6)Gal(b1-4)GlcNAc
Procedure, shortened: as §1

[6] = target: Man(a1-2)Man(a1-2)Man(a1-3)Man
Procedure, shortened: as §1

[7] = target: Man(a1-2)Man(a1-2)Man(a1-6)[Man(a1-3)]Man
Procedure, shortened: as §1

Man(a1-2)Man(a1-3)Man = target: Man(a1-2)Man(a1-3)Man
Procedure, shortened: as §1

[8] = target: Man(a1-2)Man(a1-3)[Man(a1-2)Man(a1-6)]Man
Procedure, shortened: as §1

[9] = target: Man(a1-2)Man(a1-3)[Man(a1-2)Man(a1-6)]Man(a1-6)[Man(a1-2)Man(a1-2)Man(a1-3)]Man
Procedure, shortened: as §1

[10] = target: Man(a1-2)Man(a1-3)[Man(a1-2)Man(a1-6)]Man(a1-6)[Man(a1-2)Man(a1-2)Man(a1-3)]Man(b1-4)GlcNAc(b1-4)GlcNAc
Procedure, shortened: as §1

[11] = target: Man(a1-2)Man(a1-3)[Man(a1-6)]Man(a1-6)[Man(a1-2)Man(a1-3)]Man(b1-4)GlcNAc(b1-4)GlcNAc
Procedure, shortened: as §1

[12] = target: Man(a1-2)Man(a1-6)[Man(a1-3)]Man(a1-6)[Man(a1-2)Man(a1-2)Man(a1-3)]Man
Procedure, shortened: as §1

[13] = target: Man(a1-2)Man(a1-6)[Man(a1-3)]Man(a1-6)[Man(a1-2)Man(a1-2)Man(a1-3)]Man(b1-4)GlcNAc(b1-4)GlcNAc
Procedure, shortened: as §1

Man(a1-3)[Man(a1-6)]Man = target: Man(a1-3)[Man(a1-6)]Man
Procedure, shortened: as §1

[14] = target: Man(a1-3)[Man(a1-6)]Man(a1-6)[Man(a1-2)Man(a1-3)]Man(b1-4)GlcNAc(b1-4)GlcNAc
Procedure, shortened: as §1

[15] = target: Man(a1-3)[Man(a1-6)]Man(a1-6)[Man(a1-3)]Man
Procedure, shortened: as §1

[16] = target: Man(a1-3)[Man(a1-6)]Man(a1-6)[Man(a1-3)]Man(b1-4)GlcNAc(b1-4)GlcNAc
Procedure, shortened: as §1

[17] = target: Man(a1-3)[Man(a1-6)]Man(b1-4)GlcNAc(b1-4)GlcNAc
Procedure, shortened: as §1

[18] = target: Man(a1-3)[Man(a1-6)]Man(b1-4)GlcNAc(b1-4)[Fuc(a1-6)]GlcNAc
Procedure, shortened: as §1

Man(a1-6)Man = target: Man(a1-6)Man
Procedure, shortened: as §1

Man(b1-4)GlcNAc = target: Man(b1-4)GlcNAc
Procedure, shortened: as §1

MurNAc(b1-4)GlcNAc = target: MurNAc(b1-4)GlcNAc
Procedure, shortened: as §1

Neu5Ac(a2-3)Gal = target: Neu5Ac(a2-3)Gal
Procedure, shortened: as §1

[19] = target: Neu5Ac(a2-3)Gal(b1-3)GalNAc
Procedure, shortened: as §1

[20] = target: Neu5Ac(a2-3)Gal(b1-3)GalNAc(b1-3)Gal(a1-4)Gal(b1-4)Glc
Procedure, shortened: as §1

[21] = target: Neu5Ac(a2-3)Gal(b1-3)GalNAc(b1-4)Gal(b1-4)Glc
Procedure, shortened: as §1

[22] = target: Neu5Ac(a2-3)Gal(b1-3)GalNAc(b1-4)[Neu5Ac(a2-3)]Gal(b1-4)Glc
Procedure, shortened: as §1

[23] = target: Neu5Ac(a2-3)Gal(b1-3)GalNAc(b1-4)[Neu5Ac(a2-8)Neu5Ac(a2-3)]Gal(b1-4)Glc
Procedure, shortened: as §1

[24] = target: Neu5Ac(a2-3)Gal(b1-3)GalNAc6S
Procedure, shortened: as §1

[25] = target: Neu5Ac(a2-3)Gal(b1-3)GlcNAc
Procedure, shortened: as §1

[26] = target: Neu5Ac(a2-3)Gal(b1-3)GlcNAc(b1-2)Man
Procedure, shortened: as §1

[27] = target: Neu5Ac(a2-3)Gal(b1-3)GlcNAc(b1-2)Man(a1-3)[GlcNAc(b1-4)][Neu5Ac(a2-3)Gal(b1-3)GlcNAc(b1-2)Man(a1-6)]Man(b1-4)GlcNAc(b1-4)GlcNAc
Procedure, shortened: as §1

[28] = target: Neu5Ac(a2-3)Gal(b1-3)GlcNAc(b1-2)Man(a1-3)[Neu5Ac(a2-3)Gal(b1-3)GlcNAc(b1-2)Man(a1-6)]Man(b1-4)GlcNAc(b1-4)GlcNAc
Procedure, shortened: as §1

[29] = target: Neu5Ac(a2-3)Gal(b1-3)GlcNAc(b1-2)[Neu5Ac(a2-3)Gal(b1-3)GlcNAc(b1-4)]Man(a1-6)[Neu5Ac(a2-3)Gal(b1-3)GlcNAc(b1-2)Man(a1-3)]Man(b1-4)GlcNAc(b1-4)GlcNAc
Procedure, shortened: as §1

[30] = target: Neu5Ac(a2-3)Gal(b1-3)GlcNAc(b1-3)Gal(b1-3)GlcNAc
Procedure, shortened: as §1

[31] = target: Neu5Ac(a2-3)Gal(b1-3)GlcNAc(b1-3)Gal(b1-4)GlcNAc
Procedure, shortened: as §1

[32] = target: Neu5Ac(a2-3)Gal(b1-3)GlcNAc(b1-3)GalNAc
Procedure, shortened: as §1

[33] = target: Neu5Ac(a2-3)Gal(b1-3)GlcNAc(b1-6)GalNAc
Procedure, shortened: as §1

B1: DrGRIFIN (Danio rerio), Q6DGJ1 (protein)
chain: MTLRFEASCPDGLCPGWSVILKGETPPEASKFEINFLCDRDDRVAFHFNPRFTESDIICNSYMANRWGQEERCNHFPLGVEEPFQIEIYSDNDHFHVYIDKAKVMQYKHRVEDLKTITKLQVVNDVKISSLEITKKLFY
[1]
  glycan array binding signal (z-score): -0.134
[2]
  glycan array binding signal (z-score): -0.188
[3]
  glycan array binding signal (z-score): -0.155
GlcNAc(b1-6)GalNAc
  glycan array binding signal (z-score): -0.133
[4]
  glycan array binding signal (z-score): -0.16
Kdn(a2-3)Gal(b1-3)GalNAc
  glycan array binding signal (z-score): -0.202
Kdn(a2-3)Gal(b1-3)GlcNAc
  glycan array binding signal (z-score): -0.2
Kdn(a2-3)Gal(b1-4)Glc
  glycan array binding signal (z-score): -0.135
Kdn(a2-3)Gal(b1-4)GlcNAc
  glycan array binding signal (z-score): -0.095
[5]
  glycan array binding signal (z-score): -0.132
Kdn(a2-6)Gal(b1-4)GlcNAc
  glycan array binding signal (z-score): -0.169
[6]
  glycan array binding signal (z-score): -0.16
[7]
  glycan array binding signal (z-score): -0.182
Man(a1-2)Man(a1-3)Man
  glycan array binding signal (z-score): -0.221
[8]
  glycan array binding signal (z-score): -0.046
[9]
  glycan array binding signal (z-score): -0.188
[10]
  glycan array binding signal (z-score): -0.153
[11]
  glycan array binding signal (z-score): -0.15
[12]
  glycan array binding signal (z-score): -0.123
[13]
  glycan array binding signal (z-score): -0.15
Man(a1-3)[Man(a1-6)]Man
  glycan array binding signal (z-score): -0.172
[14]
  glycan array binding signal (z-score): -0.189
[15]
  glycan array binding signal (z-score): -0.187
[16]
  glycan array binding signal (z-score): -0.195
[17]
  glycan array binding signal (z-score): -0.171
[18]
  glycan array binding signal (z-score): -0.185
Man(a1-6)Man
  glycan array binding signal (z-score): -0.192
Man(b1-4)GlcNAc
  glycan array binding signal (z-score): -0.172
MurNAc(b1-4)GlcNAc
  glycan array binding signal (z-score): -0.068
Neu5Ac(a2-3)Gal
  glycan array binding signal (z-score): -0.134
[19]
  glycan array binding signal (z-score): -0.198
[20]
  glycan array binding signal (z-score): -0.212
[21]
  glycan array binding signal (z-score): -0.122
[22]
  glycan array binding signal (z-score): -0.189
[23]
  glycan array binding signal (z-score): -0.167
[24]
  glycan array binding signal (z-score): -0.194
[25]
  glycan array binding signal (z-score): -0.121
[26]
  glycan array binding signal (z-score): -0.165
[27]
  glycan array binding signal (z-score): -0.143
[28]
  glycan array binding signal (z-score): -0.169
[29]
  glycan array binding signal (z-score): -0.215
[30]
  glycan array binding signal (z-score): -0.131
[31]
  glycan array binding signal (z-score): -0.166
[32]
  glycan array binding signal (z-score): -0.117
[33]
  glycan array binding signal (z-score): -0.171
